This note sets out measurements from article PMC6919601, “Identification of Plasmodium dipeptidyl aminopeptidase allosteric inhibitors by high throughput screening” (PLoS ONE, 2019).

Values joined by “and” are separate entries in the source; they are usually repeats but may differ in a detail not shown here. Equal values may be shown once. About 230 (0.21%) of roughly 110,000 compounds showed an effect of 50% or more. The list shows a part of the results.
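Note: 30 min substrate incubation versus DMSO and 10 µM JCP410 controls.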

Chain of DPAP1 (Q8IIJ9 whole entry, looked up): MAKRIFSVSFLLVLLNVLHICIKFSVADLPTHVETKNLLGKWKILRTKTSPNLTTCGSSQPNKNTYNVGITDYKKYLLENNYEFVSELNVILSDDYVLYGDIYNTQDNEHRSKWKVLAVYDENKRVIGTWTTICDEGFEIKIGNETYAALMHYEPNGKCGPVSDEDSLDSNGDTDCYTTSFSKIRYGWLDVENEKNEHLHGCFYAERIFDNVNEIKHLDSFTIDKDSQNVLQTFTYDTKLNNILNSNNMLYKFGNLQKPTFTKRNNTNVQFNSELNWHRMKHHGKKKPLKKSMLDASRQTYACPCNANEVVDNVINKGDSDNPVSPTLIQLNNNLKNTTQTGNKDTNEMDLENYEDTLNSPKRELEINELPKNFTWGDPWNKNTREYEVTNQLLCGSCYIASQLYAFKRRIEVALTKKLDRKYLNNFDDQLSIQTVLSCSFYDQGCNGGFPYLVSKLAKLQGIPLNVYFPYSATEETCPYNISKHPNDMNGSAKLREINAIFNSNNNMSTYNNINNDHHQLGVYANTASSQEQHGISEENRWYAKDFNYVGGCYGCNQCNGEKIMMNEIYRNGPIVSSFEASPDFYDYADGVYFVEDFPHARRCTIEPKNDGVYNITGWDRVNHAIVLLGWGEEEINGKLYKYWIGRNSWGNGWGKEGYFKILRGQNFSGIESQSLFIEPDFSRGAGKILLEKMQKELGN

The assay addresses DPAP1 (Plasmodium falciparum, UniProt Q8IIJ9). In words: primary screen, percent inhibition; read by cleavage of a fluorogenic dipeptide substrate; higher = more effect of the substance. On the set-up: species or system P. falciparum D10 trophozoite lysates; single well.
With `CC(=O)Nc1ccc2c(c1)S(=O)(=O)c1cc(NC(C)=O)ccc1-2`, the “% Inhibition @ 10 uM” value is recorded as 1.64%.

For the compound `Cc1sc(NC(=O)C2CC3CCC2C3)c(C(N)=O)c1C` (stereo not shown), the “% Inhibition @ 10 uM” value is 6.54%.

Take `COc1ccc(CC2(C)OC(c3ccc(C(C)(C)C)cc3)=NN2C(C)=O)cc1` (stereo not shown): the “% Inhibition @ 10 uM” value is reported as -0.85%.

Regarding `NC(=O)c1ccc(Cl)c(S(=O)(=O)N2CCCCC2)c1`, the “% Inhibition @ 10 uM” value is given as -1.15%.

Turning to `Cc1cccc(NC(=O)CCC(=O)Nc2cccc(C)c2)c1`, the “% Inhibition @ 10 uM” value is given as 5.31%.

Regarding `CCOCc1cc(CN2CCCCC2)c(O)c2ncccc12`, the “% Inhibition @ 10 uM” value is -4.07%.

With `CCN(CC)CCCCN1c2ccccc2CCc2ccccc21`, the “% Inhibition @ 10 uM” value is listed as 1.24%.

For the compound `CC1(C)CC(=O)C2=C(C1)N(CCc1ccccc1)C(=O)C2(NC(=O)c1ccccc1F)C(F)(F)F` (stereo not shown), the “% Inhibition @ 10 uM” value was -7.35%.

For the compound `CCOC(=O)N1CCC(NC(=O)c2cc3sc(Cl)cc3n2C)CC1`, the “% Inhibition @ 10 uM” value is given as -3.08%.

As to `CC(C)(C)OC(=O)NC(Cc1c[nH]c2ccccc12)C(=O)NCc1ccccc1` (stereo not shown), the “% Inhibition @ 10 uM” value is on record as -3.05%.

For `O=c1/c(=C/c2cn(-c3ccccc3)nc2-c2ccccc2)sc2nc(-c3ccncc3)nn12`, the “% Inhibition @ 10 uM” value was -0.385%.

As for `O=C1NC(Nc2nc3ccccc3s2)(C(F)(F)F)C(=O)N1C1CCCCC1` (stereo not shown), the “% Inhibition @ 10 uM” value is reported as 0.221%.

Take `O=C(NC1CCCCC1)NS(=O)(=O)c1ccccc1Cl`: the “% Inhibition @ 10 uM” value was 2.17%.

Take `CCC(C)NC(=O)C1CCN(c2nc3ccccc3n3cccc23)CC1` (stereo not shown): the “% Inhibition @ 10 uM” value amounted to 0.372%.

For the compound `Cc1ccc(CNC(=O)C2CCN(c3nc4cc(Cl)ccc4s3)CC2)cc1`, the “% Inhibition @ 10 uM” value was -5.92%.

With `COc1ccc(C2NCCc3cc(OC)c(OC)cc32)cc1O` (stereo not shown), the “% Inhibition @ 10 uM” value is recorded as -1.8%.

With `O=C(c1ccc(COc2ccccc2Br)o1)N1CCCCCC1`, the “% Inhibition @ 10 uM” value is reported as -3.49%.

As to `COc1ccc(CCNC(=O)C2CCN(c3ncnc4c3nc3n4CCCCC3)CC2)cc1OC`, the “% Inhibition @ 10 uM” value is 2.59%.

Regarding `COc1ccc(CC(=O)Nc2cc(C)ccc2O)cc1OC`, the “% Inhibition @ 10 uM” value amounted to 0.472%.

With `Cc1ccc(-n2ncc3c(NCc4ccccn4)ncnc32)cc1C`, the “% Inhibition @ 10 uM” value is given as -3.02%.

For the compound `CCSC1=C(C#N)C(c2ccc(Cl)cc2)C(C(C)=O)=C(C)N1` (stereo not shown), the “% Inhibition @ 10 uM” value was -4.08%.

As for `Oc1ncnc2c1C1(CCCC1)Cc1ccccc1-2`, the “% Inhibition @ 10 uM” value came out at 0.51%.

Regarding `COCCNC(=O)Cn1c(=O)c2cccn2c2cccnc21`, the “% Inhibition @ 10 uM” value is on record as -7.87%.

For the compound `CCOc1ccc(C(=O)NCCc2ccc(OC)cc2)cc1`, the “% Inhibition @ 10 uM” value is recorded as 3.44%.

`COc1ccc(N2CC(C(=O)Nc3ccc(Br)cc3C)CC2=O)cc1` (stereo not shown): the “% Inhibition @ 10 uM” value was -1.02%.

Take `COc1ccc(-c2nnc(SCC(=O)N3CCC(C)CC3)o2)cc1OC`: the “% Inhibition @ 10 uM” value is on record as -0.999%.

For the compound `CCOC(=O)N1CCN(Cc2nc3c(c(=O)n(C)c(=O)n3C)n2Cc2ccccc2)CC1`, the “% Inhibition @ 10 uM” value is given as -8.06%.

As to `O=C(c1cccc(F)c1)N1CCN(C2CCCCCC2)CC1`, the “% Inhibition @ 10 uM” value came out at 4.83%.

For the compound `CC(C)C(=O)NCCn1ccc2ccccc21`, the “% Inhibition @ 10 uM” value is given as -1%.

In the case of `O=C(Nc1ccc(Cl)cc1Cl)c1nc2nc(-c3ccccc3)cc(C(F)(F)F)n2n1`, the “% Inhibition @ 10 uM” value is given as 0.215%.

Regarding `COc1ccc(NC(=O)CCSc2cc(C)c3ccccc3n2)cc1`, the “% Inhibition @ 10 uM” value was -7.4%.

As for `Cc1ccnc(NC(=O)Cc2ccccc2Cl)c1`, the “% Inhibition @ 10 uM” value is -5.81%.

With `CC(=O)c1c(C)n(OCc2ccccc2)c2ccc3c(no[n+]3[O-])c12`, the “% Inhibition @ 10 uM” value came out at 3.04%.

Take `CCCCC(=O)N1CCN(CC/N=C(\C)C2=C(O)CC(C)(C)CC2=O)CC1`: the “% Inhibition @ 10 uM” value is given as 4.32%.

Consider `Cc1ccc(S(=O)(=O)C2(C(=O)NCc3ccccc3Cl)CC2)cc1`, for which the “% Inhibition @ 10 uM” value is recorded as -2.56%.

Take `CCOC(=O)N1CCN(C(=O)CCS(=O)(=O)c2ccc(Br)s2)CC1`: the “% Inhibition @ 10 uM” value amounted to 0.723%.

In the case of `CCOc1cccc(C2CC(=O)Nc3cc(OC)c(OC)cc32)c1` (stereo not shown), the “% Inhibition @ 10 uM” value is -17%.

Turning to `CCN(CC)C(=O)c1ccc(NC(=O)Cn2cnc3c(=O)n(C)c(=O)n(C)c32)cc1`, the “% Inhibition @ 10 uM” value is reported as -3.69%.

For `CCn1c(=S)[nH]c2sc3c(c2c1=O)CC(C)(C)OC3`, the “% Inhibition @ 10 uM” value was 1.4%.

Consider `CC1CN(C(=O)c2ccc(NS(=O)(=O)c3cccc(Cl)c3)cc2)CC(C)O1` (stereo not shown), for which the “% Inhibition @ 10 uM” value was -1.51%.

With `O=C(CSCc1ccc(Cl)cc1)NCCSc1ccccn1`, the “% Inhibition @ 10 uM” value is 2.7%.

Consider `CC1(C)Cc2nc3[nH]c(=S)[nH]c(=O)c3cc2CO1`, for which the “% Inhibition @ 10 uM” value stood at 5.73%.

Regarding `CCC(C)Nc1nc(OC)nc(Oc2ccc(O)nn2)n1` (stereo not shown), the “% Inhibition @ 10 uM” value was -6.79%.

For `CC(=O)c1cc(F)c(N2CCN(C(=O)c3cc(F)c(F)cc3Cl)CC2)cc1C`, the “% Inhibition @ 10 uM” value is -4.21%.

In the case of `COCCNC(=O)CCn1nc(-c2ccc(C)cc2)c2ccccc2c1=O`, the “% Inhibition @ 10 uM” value is 0.351%.

As to `CC(=O)c1c2c(n3c1ccc1ccccc13)C(=O)c1ccccc1C2=O`, the “% Inhibition @ 10 uM” value was 3.67%.

For `COC(=O)c1cc(S(=O)(=O)NC2CCN(Cc3ccccc3)CC2)c[nH]1`, the “% Inhibition @ 10 uM” value is given as -3.76%.

On to `CCn1c(SCC(=O)NCc2ccc(C)cc2)nc2c(c1=O)SCC2`, for which the “% Inhibition @ 10 uM” value came out at 1.39%.

Take `C=CCn1c(SCC(=O)NCc2ccco2)nc2scc(-c3ccccc3)c2c1=O`: the “% Inhibition @ 10 uM” value is -5.28%.

On to `NC1=NC(c2cccc(Br)c2)n2c(nc3ccccc32)N1` (stereo not shown), for which the “% Inhibition @ 10 uM” value was determined as 5.15%.

In the case of `COc1ccc(Br)cc1CNC(=O)Cn1ncn2cccc2c1=O`, the “% Inhibition @ 10 uM” value is listed as -4.26%.

On to `CCCCOc1ccc(CNCC2CCOC(C)(C)C2)cc1` (stereo not shown), for which the “% Inhibition @ 10 uM” value is 3.46% and -2.74%.

With `C=CCc1cc(/C=C2/SC(=O)NC2=O)cc(OCC)c1OCC`, the “% Inhibition @ 10 uM” value was -5.82%.

As to `Cc1ccc2oc(-c3cccc(NC(=O)c4ccccc4F)c3)nc2c1`, the “% Inhibition @ 10 uM” value is reported as 2.99%.

Regarding `COc1ccc(-c2nc(S)c3c(n2)Oc2c(O)cccc2C3)c(OC)c1`, the “% Inhibition @ 10 uM” value is listed as -3.85%.

For the compound `CCOC(=O)N1CCN(Cc2ccc(F)cc2F)CC1`, the “% Inhibition @ 10 uM” value is recorded as -4.04%.

As to `Cc1cccc(NC2=NC(=O)/C(=C/c3ccc(OC(C)C(=O)O)cc3)S2)c1` (stereo not shown), the “% Inhibition @ 10 uM” value was 8.31%.

`CCC(C(=O)NCc1ccc(F)cc1)n1ncn2c(cc3occc32)c1=O` (stereo not shown): the “% Inhibition @ 10 uM” value is given as 3%.

Consider `CCOC(=O)c1cnn(CCOC(=O)c2ccccc2F)c1NC(=O)c1ccccc1F`, for which the “% Inhibition @ 10 uM” value was determined as 29.3%.

For `Cc1ccc(/N=C(/C(=N\c2ccc(C)cc2)N2CCOCC2)N2CCOCC2)cc1`, the “% Inhibition @ 10 uM” value was found to be 2.68%.

In the case of `CC(=O)Nc1ccc(NC(=O)C23CC4CC(C2)CC(n2cnc(Br)n2)(C4)C3)cc1`, the “% Inhibition @ 10 uM” value amounted to 2.44%.

As to `CC12CN3CC(C)(CN(C1)C3c1ccccc1Cl)C2` (stereo not shown), the “% Inhibition @ 10 uM” value is recorded as -3.64%.

Regarding `Cc1ccc(N(C)C)cc1NC(=O)COc1ccc(Cl)cc1`, the “% Inhibition @ 10 uM” value is given as -5.65%.

Consider `CN(C)c1cc(-c2ccccc2)nc(-c2ccccc2)n1`, for which the “% Inhibition @ 10 uM” value was -1.48%.
